Laboratory results taken from PubChem BioAssay AID1963576 (National Center for Advancing Translational Sciences (NCATS), 2024).
The campaign covered roughly 46,000 compounds. About 60 (0.1%) were called active. Another 3% or so got no clear call; they are omitted. Calls come from the whole dose curve; as a rule, active = well fitted inhibition curve with a large enough effect; inconclusive = small, poorly fitted or top-dose-only effect; inactive = no such curve, though single readings can be large or run the other way. The list shows a part of the results.

Experiment: Primary qHTS assay for Inhibitors of ovarian cancer metastasis using an organotypic tumor microenvironment (TME) model.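 For activity change, negative = inhibition: plate controls were DMSO wells for no effect and tomatine positive control wells for full effect.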 Note: nearly all actives have a fitted effect of over 65% in size.
Conditions: SKOV3ip1-GFP adhesion/invasion on 3D omental model, fluorescence; series mostly up to 45.8 µM; activity change, negative = inhibition: at the top concentration
Procedure, shortened: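 qHTS, 4-pt dose (0.36-46 umol/L); SKOV3ip1-GFP, 1,200 cells/well, no FBS; primary omental fibroblast/mesothelial co-culture 48 h pre-grown; 2 h RT + 16 h 37 C; PBS wash, 4% PFA; GFP count 488/509 nm.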

Activity change, negative = inhibition, inactive:
CC(C)CCNS(=O)(=O)c1ccc(N2CCCCS2(=O)=O)cc1 4.55%, COc1ccc(NC(=O)Cn2c(=O)c3cc(Cl)ccc3n3nncc23)cc1 -9.89%, CC1CCN(C(=O)CSc2nnc(-c3ccccc3)o2)CC1 -18.4%, Cc1cccc(C)c1OC(=O)CSc1nnc(CNC(=O)c2ccccc2)o1 0.41%, CN(C(=O)CSc1nc(C2CCCC2)nc2c1c(=O)n(C)c(=O)n2C)c1ccccc1 -29.2%, O=C(CN1CCCN(S(=O)(=O)c2ccc(Br)cc2)CC1)Nc1cccc(C(F)(F)F)c1 11.2%, Cc1cc(C)c(NS(=O)(=O)c2cc(-c3onc(C)c3C)ccc2C)c(C)c1 -8.98%, CC(C)COC(=O)Cn1nnc2sc(-c3ccccc3)cc2c1=O 0.178%, CCCc1nnc(NC(=O)Cc2coc3ccc(C(C)C)cc23)s1 -21.1%, O=C(CSc1oc(-c2ccccc2)nc1S(=O)(=O)c1ccc(Cl)cc1)NC1CCCCC1 -7.06%, COc1ccc(-n2nnc(-c3nsc(NC(=O)c4ccc(C)c(C)c4)n3)c2C)cc1Cl 1.91%, O=C(Nc1cccc(C(F)(F)F)c1)c1cc(S(=O)(=O)N2CCCC2)c[nH]1 8.3%, O=C(C1CCC(Cn2c(=O)c3sccc3n(Cc3ccccc3)c2=O)CC1)N1CCCCC1 (centres undefined) 11.4%, Cc1ccc(C)c(N2CCN(C(=O)CCNS(=O)(=O)c3ccc4c(c3)CCN4C(=O)C3CC3)CC2)c1 -3.58%, CC(C)C(=O)Oc1ccc(CO)cc1[C@H](CCN(C(C)C)C(C)C)c1ccccc1 -13.7%, Cc1ccc(-c2cc(-c3coc4ccc(Cl)cc4c3=O)c3c(n2)-c2ccccc2OC3)cc1 1.84%, O=C(NCc1ccccc1Cl)c1cnc(N2CCOCC2)c2ccccc12 25%, CCN(Cc1ccccc1)Cc1c(O)ccc2c(=O)c(-c3ccc(Cl)cc3)coc12 -19.3%, CCOc1ccc(NC(=O)CCc2nc3cccnc3n2-c2ccccc2)cc1 -6.58%, COc1ccc(OC)c(NC(=O)CC2C(=O)NCCN2C(=O)C(F)(F)F)c1 (centres undefined) -15.8%, CCc1cccc(CC)c1NC(=O)C(Cc1ccccc1)NS(=O)(=O)c1cccc2nsnc12 (centres undefined) 1.54%, O=C(Nc1nc2ccc(Cl)cc2s1)c1cc(=O)c2ccccc2o1 1.58%, CCc1ccc(NC(=O)CSc2nc3c(oc4ccccc43)c(=O)n2-c2cccc(C)c2)cc1 -6.61%, COc1ccc(S(=O)(=O)NCCS(=O)(=O)N2CCN(c3ccccc3)CC2)cc1OC 15.4%, COc1ccc(NC(=O)c2oc3ccccc3c2NC(=O)C23CC4CC(CC(C4)C2)C3)c(OC)c1 -4.87%, COc1ccc2c(c1)c(CC(=O)Nc1ccc(C(C)=O)cc1)c(C)n2C(=O)c1ccc(Cl)cc1 0.0448%, CCN1C(C(=O)c2ccccc2)=C(OC(=O)COc2ccc(OC)cc2)c2ccccc2S1(=O)=O -8.34%, CN1CCc2c(sc(NC(=O)CSc3ccc(F)cc3)c2-c2nc3ccccc3s2)C1 -15.8%, COc1cccc(C(=O)NC(=NCCc2c[nH]c3ccc(OC)cc23)Nc2nc(C)cc(C)n2)c1 4.22%, CCc1cnc2c(c1SCc1ccccc1C)c(=O)n(C)c(=O)n2C 4.37%, Cc1ccc(NC(=O)c2ccc(CN3CCN(C)CC3)cc2)cc1Nc1nccc(-c2cccnc2)n1 4.52%, Cc1ccc(CNC(=O)CCCCCn2c(=O)c3sccc3n(CC(=O)Nc3ccc(C)c(F)c3)c2=O)cc1 3.66%, COc1ccc(-c2cn3nc(N4CCCC(C(=O)Nc5cccc(OC)c5)C4)sc3n2)cc1 (centres undefined) -4.43%, COc1cc2c(cc1OC)n(CC(=O)c1cccc(Cl)c1)c(=O)n1nc(CCn3nc(C)cc3C)nc21 29.5%, O=C(NCc1cccnc1)C(=O)NCC(c1cccnc1)N1CCN(c2ccc(F)cc2)CC1 (centres undefined) -31.2%, Cc1ccccc1C(=O)Nc1sc2c(c1C(=O)N1CCCCC1)CCC(C)C2 (centres undefined) -27.5%, COc1cccc(C(=O)N2c3ccc(C)cc3C(C)(c3ccccc3)CC2(C)C)c1 (centres undefined) 6.98%, O=C(CCN1C(=O)c2ccccc2Sc2ncccc21)Nc1ccc(F)cc1F -3.21%, COc1ccc(C(=O)Nc2nc3n(n2)C(c2ccccc2)C=C(c2ccccc2)N3)cc1 (centres undefined) 1.31%, COC(=O)c1ccc2c(c1)N(CC(=O)Nc1ccc(OC)c(Cl)c1)C(=O)c1ccccc1S2 19.7%, Cc1ccc(-n2nc3c(N4CCCC(C(=O)NCc5ccc(Cl)cc5)C4)nnc(C)c3c2C)cc1 (centres undefined) 10.6%, CCc1ccc(-c2cn3c(n2)sc2cc(C(=O)NCCC4=CCCCC4)ccc23)cc1 -17.9%, Cc1ccc(-c2nn3c(=O)cc(CN4CCN(C(=O)/C=C/c5ccccc5)CC4)nc3s2)cc1 -4.98%, CCOC(=O)c1ccc(NC(=O)C(Cc2ccccc2)N2Cc3ccccc3C2=O)cc1 (centres undefined) -3.08%, CCn1c(=O)c2sccc2n2c(CCCC(=O)N3CCN(c4cccc(Cl)c4)CC3)nnc12 -3.15%, CCOc1ccccc1C(=O)N(Cc1cc(OC)c(OC)c(OC)c1)c1ccccn1 0.527%

outcome, inactive:
Cc1ccc(NC(=O)c2cnc(SCC(=O)N3CCOCC3)n(C)c2=O)cc1C, CC1CCN(C(=O)c2ccc3c(c2)N(Cc2ccccc2)C(=O)c2ccccc2S3(=O)=O)CC1, COCCCNC(=O)CSc1nc2cc3c(cc2c(=O)n1CCCCCC(=O)NCc1ccc(OC)cc1)OCO3, Cc1cccc(N2CCN(C(=O)c3ccc4c(Cl)c5c(nc4c3)CCCC5)CC2C)c1 (centres undefined), COc1ccc(NC(=O)Cn2nnc(C(=O)NCc3ccc4c(c3)OCO4)c2N)cc1, COc1ccccc1-c1noc(-c2ccc(NCc3ccco3)c([N+](=O)[O-])c2)n1, Cc1ccc2cccc(NC(=O)c3cccc4c(Cl)cccc34)c2n1, Cc1ccc(NC(=O)c2oc3ccccc3c2NC(=O)c2ccc(F)c(F)c2)cc1, CC(C)CN(CCCNC(=O)c1cc(=O)[nH]c2ccc(S(=O)(=O)N3CCCC3)cc12)CC(C)C, CCOCCCNC(=O)c1cc(Sc2cccc(Cl)c2)nc2ccccc12, COc1ccc(C2NC(=O)NC(C)=C2C(=O)Nc2ccccc2)cc1OC (centres undefined), CCOC(=O)c1ccc(NC(=O)CSc2cn(CC(=O)N3CCCC3)c3ccccc23)cc1, CCCOc1ccc(C(=O)Nc2ccc3oc(-c4cccc(Cl)c4Cl)nc3c2)cc1
